# In the supplement of paper PMC8728848:
# Some of the results follow.
# B1: HPAIIITrx (Helix pomatia), Q1KM18 (protein)
# chain: MLFVTIISLGLLAIVHGQCALKTIAFSAAIDREQTFDANQVVIYDIVITNHGNAYDNSTGLFTAPVDGMYSFQLNLLTIKEKEGWLELVHNGQLKVSVYAKQDSTYDSSSNSVIIKMKEGDRVNVRAHKKSGLFGRDDELYNTFSGHFLSGL
# Columns and labels:
# Assay in all cases: glycan array binding signal (z-score within array); higher = stronger binding
# Conditions in all cases: glycan notation: IUPAC condensed, linker removed
# Man(a1-6)Man = target: Man(a1-6)Man
# In short: (§1)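 Glycan array data came from 3228 arrays in the Consortium for Functional Glycomics database, and only arrays with an available protein sequence were kept. Glycan names were put into IUPAC-condensed notation, and columns mapping to the same glycan were averaged. The binding signal is a within-array Z-score, averaged across arrays of one protein sequence run at different concentrations or buffers and across linkers. A negative Z-score can be read as non-binding.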
# Man(b1-4)GlcNAc = target: Man(b1-4)GlcNAc
# In short: as §1
# MurNAc(b1-4)GlcNAc = target: MurNAc(b1-4)GlcNAc
# In short: as §1
# Neu5Ac(a2-3)Gal = target: Neu5Ac(a2-3)Gal
# In short: as §1
# [1] = target: Neu5Ac(a2-3)Gal(b1-3)GalNAc
# In short: as §1
# [2] = target: Neu5Ac(a2-3)Gal(b1-3)GalNAc(b1-3)Gal(a1-4)Gal(b1-4)Glc
# In short: as §1
# [3] = target: Neu5Ac(a2-3)Gal(b1-3)GalNAc(b1-3)Gal(b1-4)GlcNAc
# In short: as §1
# [4] = target: Neu5Ac(a2-3)Gal(b1-3)GalNAc(b1-4)[Neu5Ac(a2-3)]Gal(b1-4)Glc
# In short: as §1
# [5] = target: Neu5Ac(a2-3)Gal(b1-3)GalNAc(b1-4)[Neu5Ac(a2-8)Neu5Ac(a2-3)]Gal(b1-4)Glc
# In short: as §1
# [6] = target: Neu5Ac(a2-3)Gal(b1-3)GalNAc6S
# In short: as §1
# [7] = target: Neu5Ac(a2-3)Gal(b1-3)GlcNAc
# In short: as §1
# [8] = target: Neu5Ac(a2-3)Gal(b1-3)GlcNAc(b1-2)Man
# In short: as §1
# [9] = target: Neu5Ac(a2-3)Gal(b1-3)GlcNAc(b1-2)Man(a1-3)[GlcNAc(b1-4)][Neu5Ac(a2-3)Gal(b1-3)GlcNAc(b1-2)Man(a1-6)]Man(b1-4)GlcNAc(b1-4)GlcNAc
# In short: as §1
# [10] = target: Neu5Ac(a2-3)Gal(b1-3)GlcNAc(b1-2)Man(a1-3)[Neu5Ac(a2-3)Gal(b1-3)GlcNAc(b1-2)Man(a1-6)]Man(b1-4)GlcNAc(b1-4)GlcNAc
# In short: as §1
# [11] = target: Neu5Ac(a2-3)Gal(b1-3)GlcNAc(b1-3)Gal(b1-3)GlcNAc
# In short: as §1
# [12] = target: Neu5Ac(a2-3)Gal(b1-3)GlcNAc(b1-3)Gal(b1-4)GlcNAc
# In short: as §1
# [13] = target: Neu5Ac(a2-3)Gal(b1-3)GlcNAc(b1-3)GalNAc
# In short: as §1
# [14] = target: Neu5Ac(a2-3)Gal(b1-3)GlcNAc(b1-4)Gal(b1-4)Glc
# In short: as §1
# [15] = target: Neu5Ac(a2-3)Gal(b1-3)GlcNAc(b1-6)GalNAc
# In short: as §1
# [16] = target: Neu5Ac(a2-3)Gal(b1-3)GlcNAc6S
# In short: as §1
# [17] = target: Neu5Ac(a2-3)Gal(b1-3)[Fuc(a1-4)]GlcNAc
# In short: as §1
# [18] = target: Neu5Ac(a2-3)Gal(b1-3)[Fuc(a1-4)]GlcNAc(b1-3)Gal(b1-3)[Fuc(a1-4)]GlcNAc
# In short: as §1
# [19] = target: Neu5Ac(a2-3)Gal(b1-3)[Fuc(a1-4)]GlcNAc(b1-3)Gal(b1-4)[Fuc(a1-3)]GlcNAc
# In short: as §1
# [20] = target: Neu5Ac(a2-3)Gal(b1-3)[GlcNAc(b1-6)]GalNAc
# In short: as §1
# [21] = target: Neu5Ac(a2-3)Gal(b1-3)[Neu5Ac(a2-3)Gal(b1-4)]GlcNAc
# In short: as §1
# [22] = target: Neu5Ac(a2-3)Gal(b1-3)[Neu5Ac(a2-6)]GalNAc
# In short: as §1
# [23] = target: Neu5Ac(a2-3)Gal(b1-3)[Neu5Ac(a2-6)]GlcNAc(b1-3)[Fuc(a1-3)[Gal(b1-4)]GlcNAc(b1-6)]Gal(b1-4)Glc
# In short: as §1
# [24] = target: Neu5Ac(a2-3)Gal(b1-3)]Neu5Ac(a2-3)Gal(b1-4)]GlcNAc
# In short: as §1
# Neu5Ac(a2-3)Gal(b1-4)Glc = target: Neu5Ac(a2-3)Gal(b1-4)Glc
# In short: as §1
# [25] = target: Neu5Ac(a2-3)Gal(b1-4)GlcNAc
# In short: as §1
# [26] = target: Neu5Ac(a2-3)Gal(b1-4)GlcNAc(b1-2)Man
# In short: as §1
# [27] = target: Neu5Ac(a2-3)Gal(b1-4)GlcNAc(b1-2)Man(a1-3)[GlcNAc(b1-2)Man(b1-4)GlcNAc(b1-2)Man(a1-6)]Man(b1-4)GlcNAc(b1-4)GlcNAc
# In short: as §1
# [28] = target: Neu5Ac(a2-3)Gal(b1-4)GlcNAc(b1-2)Man(a1-3)[GlcNAc(b1-4)][Neu5Ac(a2-3)Gal(b1-4)GlcNAc(b1-2)Man(a1-6)]Man(b1-4)GlcNAc(b1-4)GlcNAc
# In short: as §1
# [29] = target: Neu5Ac(a2-3)Gal(b1-4)GlcNAc(b1-2)Man(a1-3)[Neu5Ac(a2-3)Gal(b1-4)GlcNAc(b1-2)Man(a1-6)]Man(b1-4)GlcNAc(b1-4)GlcNAc
# In short: as §1
# [30] = target: Neu5Ac(a2-3)Gal(b1-4)GlcNAc(b1-2)Man(a1-3)[Neu5Ac(a2-3)Gal(b1-4)GlcNAc(b1-2)Man(a1-6)]Man(b1-4)GlcNAc(b1-4)[Fuc(a1-6)]GlcNAc
# In short: as §1
# [31] = target: Neu5Ac(a2-3)Gal(b1-4)GlcNAc(b1-2)Man(a1-3)[Neu5Ac(a2-6)Gal(b1-4)GlcNAc(b1-2)Man(a1-6)]Man(b1-4)GlcNAc(b1-4)GlcNAc
# In short: as §1
# [32] = target: Neu5Ac(a2-3)Gal(b1-4)GlcNAc(b1-2)[Neu5Ac(a2-3)Gal(b1-4)GlcNAc(b1-4)]Man(a1-3)[GlcNAc(b1-4)][Neu5Ac(a2-3)Gal(b1-4)GlcNAc(b1-2)[Neu5Ac(a2-3)Gal(b1-4)GlcNAc(b1-6)]Man(a1-6)]Man(b1-4)GlcNAc(b1-4)GlcNAc
# In short: as §1
# [33] = target: Neu5Ac(a2-3)Gal(b1-4)GlcNAc(b1-2)[Neu5Ac(a2-3)Gal(b1-4)GlcNAc(b1-4)]Man(a1-3)[GlcNAc(b1-4)][Neu5Ac(a2-3)Gal(b1-4)GlcNAc(b1-4)Man(a1-6)]Man(b1-4)GlcNAc(b1-4)GlcNAc
# In short: as §1
# [34] = target: Neu5Ac(a2-3)Gal(b1-4)GlcNAc(b1-2)[Neu5Ac(a2-3)Gal(b1-4)GlcNAc(b1-6)]Man(a1-6)[Neu5Ac(a2-3)Gal(b1-4)GlcNAc(b1-2)Man(a1-3)]Man(b1-4)GlcNAc(b1-4)GlcNAc
# In short: as §1
# [35] = target: Neu5Ac(a2-3)Gal(b1-4)GlcNAc(b1-2)[Neu5Ac(a2-3)Gal(b1-4)GlcNAc(b1-6)]Man(a1-6)[Neu5Ac(a2-3)Gal(b1-4)GlcNAc(b1-2)Man(a1-3)][GlcNAc(b1-4)]Man(b1-4)GlcNAc(b1-4)GlcNAc
# In short: as §1
# [36] = target: Neu5Ac(a2-3)Gal(b1-4)GlcNAc(b1-3)Gal
# In short: as §1
# [37] = target: Neu5Ac(a2-3)Gal(b1-4)GlcNAc(b1-3)Gal(b1-3)GlcNAc
# In short: as §1
# [38] = target: Neu5Ac(a2-3)Gal(b1-4)GlcNAc(b1-3)Gal(b1-4)GlcNAc
# In short: as §1
# [39] = target: Neu5Ac(a2-3)Gal(b1-4)GlcNAc(b1-3)Gal(b1-4)GlcNAc(b1-2)Man(a1-3)[Neu5Ac(a2-3)Gal(b1-4)GlcNAc(b1-3)Gal(b1-4)GlcNAc(b1-2)Man(a1-6)]Man(b1-4)GlcNAc(b1-4)GlcNAc
# In short: as §1
# [40] = target: Neu5Ac(a2-3)Gal(b1-4)GlcNAc(b1-3)Gal(b1-4)GlcNAc(b1-3)Gal(b1-4)GlcNAc
# In short: as §1
binder,measurement,setting,value
B1,glycan array binding signal (z-score),Man(a1-6)Man,0.212
same,glycan array binding signal (z-score),Man(b1-4)GlcNAc,-0.249
same,glycan array binding signal (z-score),MurNAc(b1-4)GlcNAc,-0.392
same,glycan array binding signal (z-score),Neu5Ac(a2-3)Gal,-0.093
same,glycan array binding signal (z-score),[1],-0.415
same,glycan array binding signal (z-score),[2],-0.222
same,glycan array binding signal (z-score),[3],-0.377
same,glycan array binding signal (z-score),[4],-0.412
same,glycan array binding signal (z-score),[5],-0.255
same,glycan array binding signal (z-score),[6],-0.302
same,glycan array binding signal (z-score),[7],-0.407
same,glycan array binding signal (z-score),[8],0.114
same,glycan array binding signal (z-score),[9],-0.253
same,glycan array binding signal (z-score),[10],0.179
same,glycan array binding signal (z-score),[11],-0.405
same,glycan array binding signal (z-score),[12],-0.46
same,glycan array binding signal (z-score),[13],-0.255
same,glycan array binding signal (z-score),[14],-0.297
same,glycan array binding signal (z-score),[15],-0.423
same,glycan array binding signal (z-score),[16],0.657
same,glycan array binding signal (z-score),[17],-0.4
same,glycan array binding signal (z-score),[18],-0.101
same,glycan array binding signal (z-score),[19],1.57
same,glycan array binding signal (z-score),[20],-0.366
same,glycan array binding signal (z-score),[21],-0.323
same,glycan array binding signal (z-score),[22],-0.012
same,glycan array binding signal (z-score),[23],-0.403
same,glycan array binding signal (z-score),[24],-0.402
same,glycan array binding signal (z-score),Neu5Ac(a2-3)Gal(b1-4)Glc,-0.124
same,glycan array binding signal (z-score),[25],-0.432
same,glycan array binding signal (z-score),[26],1.64
same,glycan array binding signal (z-score),[27],-0.455
same,glycan array binding signal (z-score),[28],-0.498
same,glycan array binding signal (z-score),[29],-0.44
same,glycan array binding signal (z-score),[30],-0.442
same,glycan array binding signal (z-score),[31],-0.506
same,glycan array binding signal (z-score),[32],-0.418
same,glycan array binding signal (z-score),[33],-0.441
same,glycan array binding signal (z-score),[34],-0.285
same,glycan array binding signal (z-score),[35],-0.5
same,glycan array binding signal (z-score),[36],-0.48
same,glycan array binding signal (z-score),[37],0.276
same,glycan array binding signal (z-score),[38],-0.508
same,glycan array binding signal (z-score),[39],0.77
same,glycan array binding signal (z-score),[40],-0.467
